Assay results taken from PubChem BioAssay AID2451 (National Center for Advancing Translational Sciences (NCATS), 2010).
The campaign covered roughly 290,000 compounds. About 2,100 (0.72%) were called active. The inconclusive results got no clear call from the source; some entries with a clear call stand among them for comparison. Calls come from the whole dose curve; as a rule, active = well fitted inhibition curve with a large enough effect; inconclusive = small, poorly fitted or top-dose-only effect, or effect the other way; inactive = flat fitted curve, though single readings scatter. A potency beside an inconclusive call is a rough fit, not a confirmed value.

biological target: Fructose-bisphosphate aldolase (Giardia intestinalis (strain ATCC 50803 / WB clone C6)) (UniProt A8B2U2); experiment: qHTS Assay for Inhibitors of Fructose-1,6-bisphosphate Aldolase from Giardia Lamblia; settings: purified Giardia FBPA; activity, negative = inhibition: at 59.6 µM (top of the series) unless noted; note: nearly all actives have a fitted effect of over 55% in size
In short: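 Giardia FBPA (40 nM reagent) was preincubated 10 min at RT with compound (up to 57.5 uM final), then substrate plus GAPDH/TPI/NAD/arsenate coupling system with diaphorase/resazurin was added; resorufin fluorescence (525/598 nm) was read after 20 min.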
% is set by controls: 0 for no effect and ±100 for the full control effect; potency is the fitted concentration of half-maximal effect; tags give direction and shape of the fitted curve.

UniProt A8B2U2, sequence (A8B2U2 whole entry, looked up): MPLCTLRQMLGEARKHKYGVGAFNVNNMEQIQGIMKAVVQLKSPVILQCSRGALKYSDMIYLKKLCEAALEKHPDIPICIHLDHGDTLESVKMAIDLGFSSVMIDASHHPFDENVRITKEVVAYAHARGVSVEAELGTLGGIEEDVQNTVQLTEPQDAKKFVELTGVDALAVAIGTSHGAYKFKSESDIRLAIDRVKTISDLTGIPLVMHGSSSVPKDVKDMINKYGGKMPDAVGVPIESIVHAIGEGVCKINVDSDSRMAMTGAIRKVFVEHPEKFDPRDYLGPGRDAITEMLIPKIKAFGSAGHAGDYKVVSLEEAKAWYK

Row | Structure (SMILES) | Potency | activity, negative = inhibition
1 | Cc1cc2[nH]c(=O)cc(-c3ccccc3)n2n1 | inconclusive: 14.1 µM [inhibitor, partial curve] | –
2 | Cn1nnnc1SCC1=C(C(=O)O)N2C(=O)C(NC(=O)C3CC3c3ccccc3)C2SC1 (stereo unspecified) | inconclusive: 19.9 µM [inhibitor, partial curve] | –
3 | O=C(CSc1n[nH]c(-c2ccco2)n1)Nc1ccccc1F | inconclusive: 15.8 µM [inhibitor, single point] | –
4 | O=C(O)c1cnn(-c2nc(-c3ccc(F)cc3)cs2)c1C(F)(F)F | inconclusive: 17.7 µM [activator, single point] | –
5 | CC(=O)Nc1ccc(N=Cc2c(O)c(C(=O)Nc3ccccc3)cc3ccccc23)cc1 | inconclusive: 7.92 µM [inhibitor, partial curve] | –
6 | COc1ccc2ccccc2c1C(O)c1nccn1C (stereo unspecified) | inconclusive: 7.92 µM [inhibitor, full curve] | –
7 | CCOC(=O)/C(C#N)=C/c1cccc(F)c1 | inconclusive: 19.9 µM [inhibitor, partial curve] | –
8 | CCOc1cccc(OCC)c2c(C)[n+](CC3CCCO3)c(C)c1-2 (stereo unspecified) | inconclusive: 15.8 µM [inhibitor, partial curve] | –
9 | CC1Cc2ccccc2N1C(=S)Nc1cccc(S(=O)(=O)N(C)C)c1 (stereo unspecified) | – | inactive: -18.3%
10 | COC(=O)[C@H]1C(OC)[C@@H](OC(=O)c2cc(OC)c(OC)c(OC)c2)C[C@@H]2CN3CCc4c([nH]c5cc(OC)ccc45)[C@H]3C[C@H]21 (stereo partly specified) | inconclusive: 19.9 µM [inhibitor, partial curve] | –
11 | O=C(NN=C1C2CC3CC1CC(Cl)(C3)C2)c1ccccn1 | inconclusive: 17.7 µM [inhibitor, partial curve] | –
12 | O=C(Nc1nc2ccc(F)cc2s1)c1ccccn1 | inconclusive: 4.46 µM [inhibitor, full curve] | –
13 | OC1CCCN(CC(O)COC(c2ccccc2)c2ccccc2)C1 (stereo unspecified) | inconclusive: 17.7 µM [inhibitor, partial curve] | –
14 | Cc1cc(C2C(C#N)=C(N)SC(N)=C2C#N)c(C)s1 | inconclusive: 9.98 µM [inhibitor, partial curve] | –
15 | C/C(=N\NC(N)=S)c1ccc2c(c1)OCCO2 | active: 17.7 µM | –
16 | COc1ccc(-c2cn3cc(C)ccc3n2)cc1F | inconclusive: 14.1 µM [inhibitor, partial curve] | –
17 | Nc1nc(NC(=O)c2ccccc2Cl)nn1-c1ccccc1 | – | inactive: -1.74%
18 | O=C(Nc1nc2ccccc2n1CCOc1ccccc1)c1ccco1 | inconclusive: 19.9 µM [activator, single point] | –
19 | C/C(=N\NC(=O)Cc1ccc(Cl)cc1)c1ccccn1 | inconclusive: 17.7 µM [inhibitor, single point] | –
20 | CCCCC(=O)N/C(N)=N/c1nc2ccccc2o1 | – | inactive: 2.6%
21 | CC(Sc1nc2c(c(=O)[nH]1)CCCC2)C(=O)Nc1ccccc1C#N (stereo unspecified) | inconclusive: 31.6 µM [inhibitor, single point] | –
22 | CCc1ccc(CN2CCN(C(=O)c3ccco3)CC2)cc1 | active: 28.2 µM | –
23 | Cc1cc(C(C)(C)C)cc(S(=O)(=O)Nc2ccc(O)c(C(=O)O)c2)c1C | inconclusive: 15.8 µM [activator, partial curve] | –
24 | COc1cccc(/C=N/n2c(-c3cc(C)[nH]n3)n[nH]c2=S)c1O | active: 5.61 µM | –

Row | Structure (SMILES) | Potency | activity, negative = inhibition
25 | NC1=NN=C(N2N=C(c3ccco3)CC2(O)C(F)(F)F)n2ncnc2C1 (stereo unspecified) | inconclusive: 2.81 µM [inhibitor, full curve, poor fit] | –
26 | CCCCN(CC)c1nc(N)c2c(N)nc(OCC)cc2c1C#N | inconclusive: 7.06 µM [inhibitor, partial curve] | –
27 | COc1ccc2[nH]c(=O)c(CNc3ccccc3C)cc2c1 | inconclusive: 17.7 µM [inhibitor, partial curve] | –
28 | Cc1ccc(C)c(S(=O)(=O)Nc2ccc(O)c(Sc3ncn[nH]3)c2)c1 | inconclusive: 15.8 µM [inhibitor, single point] | –
29 | NC(=O)C1CCN(Cc2ccc(OCc3ccccc3)cc2)CC1 | inconclusive: 17.8 µM [inhibitor, partial curve] | –
30 | OCC1OC(n2cnc3c(=S)nc[nH]c32)C(O)C1O (stereo unspecified) | active: 4.46 µM | –
31 | CSCC[C@H](NC(=O)N1CCn2c1nc1ccccc12)C(=O)N[C@H](Cc1ccccc1)C(=O)O | inconclusive: 15.8 µM [inhibitor, partial curve] | –
32 | CCOc1ccccc1-c1n[nH]c(=S)o1 | inconclusive: 17.7 µM [inhibitor, single point] | –
33 | COc1ccc(N2CC(O)=C(c3nc(-c4ccccc4)cs3)C2=N)cc1 | – | inactive: -0.207%
34 | CC1CCN(C(=O)CSCC(=O)Nc2nc(-c3cccs3)cs2)CC1 | – | inactive: -2.44%
35 | CC1SC(=NC(=O)c2ccco2)NC1=O (stereo unspecified) | inconclusive: 17.7 µM [inhibitor, partial curve] | –
36 | COc1cc(CN2CCN(S(=O)(=O)c3ccccc3)CC2)cc(OC)c1OC | active: 25.1 µM | –
37 | COc1ccc(/C=C2\SC(=S)N(NS(=O)(=O)c3ccc(C)cc3)C2=O)c(OC)c1 | inconclusive: 28.2 µM [inhibitor, partial curve] | –
38 | COc1ccc(/C=C/C(=O)NCc2ccccn2)cc1OC | inconclusive: 35.4 µM [inhibitor, single point] | –
39 | Cc1nnc(NC(=O)c2ccc(S(=O)(=O)N3CCCCCC3)cc2)o1 | inconclusive: 17.7 µM [inhibitor, single point] | –
40 | CC1CN(CCCCOc2ccc(F)cc2)CC(C)O1 (stereo unspecified) | inconclusive: 19.9 µM [inhibitor, partial curve] | –
41 | C#CCOCCOCCOCCNc1nc(N2CCOCC2)nc(N2CCN(C(=O)[C@H]([C@@H](C)O)n3cc(CCCCN)nn3)CC2)n1 | inconclusive: 31.5 µM [inhibitor, single point] | –
42 | CCN(CC)C(=O)c1ccc2c3c(cccc13)C(=O)N(CCc1ccc(OC)c(OC)c1)C2=O | – | inactive: -6.53%
43 | Cc1nonc1NC(=O)CSc1cn[nH]n1 | inconclusive: 28.2 µM [inhibitor, single point] | –
44 | COc1ccc(-c2coc3cc(O)cc(O)c3c2=O)cc1 | inactive | –
45 | COc1c(C2=CC(=O)N(C)C2=O)c2c(n1C)C(=O)c1ccccc1C2=O | inconclusive: 9.98 µM [inhibitor, partial curve] | –
46 | Cc1ccc2nc(-c3ccc4c(c3)OCCO4)cn2c1 | inconclusive: 15.8 µM [inhibitor, partial curve] | –
47 | COc1cc(S(=O)(=O)Nc2ncn[nH]2)ccc1Cl | inconclusive: 17.8 µM [inhibitor, partial curve] | –
48 | CCOC(=O)N1CCN(C(=O)c2ccc(NC(=O)c3ccc(C)cc3)cc2)CC1 | – | inactive: 1.35%

Row | Structure (SMILES) | Potency | activity, negative = inhibition
49 | Cc1ccc(/C=C/C(=O)N2CC(=O)Nc3ccccc32)o1 | inconclusive: 28.1 µM [inhibitor, single point] | –
50 | COc1ccc(F)c(CN2CCN(CCc3ccccc3)C(CCO)C2)c1 (stereo unspecified) | – | inactive: -2.73%
51 | O=C(NC(=S)Nc1nc(-c2ccc(Br)cc2)cs1)c1cccnc1 | – | inactive: 3.74%
52 | COc1ccc(/C=N/NC(=O)c2nn(-c3ccc(Cl)cc3)c(=O)c3c(N)scc23)cc1 | inconclusive: 3.97 µM [inhibitor, full curve] | –
53 | COc1ccc(NC2CCCN(C(=O)c3ccc(CSC)o3)C2)cc1OC (stereo unspecified) | inconclusive: 15.8 µM [inhibitor, partial curve] | –
54 | Cc1ccc(C(C)C)c(OCCCn2ccnc2C)c1 | inconclusive: 12.6 µM [inhibitor, partial curve] | –
55 | COc1cc(/C=C2\CCCc3c2nc2ccccc2c3C(=O)O)cc([N+](=O)[O-])c1O | inconclusive: 7.08 µM [inhibitor, partial curve, poor fit] | –
56 | O=C(N/N=C/c1ccc(-c2ccccc2[N+](=O)[O-])o1)c1cccnc1 | inconclusive: 28.2 µM [inhibitor, partial curve] | –
57 | CCOC(=O)C1CCCCN1Cc1cccc(OC)c1OC (stereo unspecified) | inconclusive: 12.6 µM [inhibitor, partial curve] | –
58 | O=C(CSc1nc2ccc([N+](=O)[O-])cc2s1)NCC1CCCO1 (stereo unspecified) | – | inactive: -8.7%
59 | COc1ccccc1N=c1oc2cc(O)ccc2cc1C(N)=O | – | inactive: 10.4%
60 | O=c1[nH][nH]c2c(N=Cc3ccccc3O)ccc(F)c12 | active: 6.29 µM | –
61 | Cc1cc(S(=O)(=O)NCCc2ccccc2)c(C)s1 | – | inactive: -8.43%
62 | O=C(CNCC(=O)Nc1ccc(F)c(F)c1F)Nc1ccc(F)c(F)c1F | – | inactive: -10.3%
63 | O=C1CCCC(O)=C1N=Nc1ccc(C(=O)O)cc1 | inconclusive: 17.7 µM [inhibitor, partial curve] | –
64 | COc1cccc(NC(=S)N(Cc2ccc(Cl)cc2)Cc2ccc(C(=O)O)cc2)c1 | – | inactive: -1.46%
65 | Cc1cc(NC(=O)CCN2CCC(C)CC2)ccc1Br | inconclusive: 28.2 µM [inhibitor, partial curve] | –
66 | CSc1nnc(-c2ccccc2Cl)n1N | – | inactive: -9.18%
67 | Cc1ccc(S(=O)(=O)/N=C2/C=C(Sc3ncn[nH]3)C(=O)c3ccccc32)cc1 | active: 0.446 µM | –
68 | CCOc1ccccc1-c1cc(-c2n[nH]c(=S)n2CC)c2ccccc2n1 | inconclusive: 17.7 µM [activator, partial curve] | –
69 | CC1(C)C2CCC(C2)C1(C)NC(=O)CNCC1CCCCC1 (stereo unspecified) | inconclusive: 15.8 µM [inhibitor, partial curve] | –
70 | Cn1c(O)c(C2=NN(C(=O)CCl)C(c3ccccc3)C2)c(=O)n(C)c1=O (stereo unspecified) | inconclusive: 17.7 µM [inhibitor, single point] | –
71 | Cc1nn(C(C)C(=O)NC2C(=O)N3C(C(=O)O)=C(CSc4nnnn4C)CSC23)cc1Cl (stereo unspecified) | inconclusive: 15.8 µM [inhibitor, partial curve] | –
